{"source": "the RNAGym collection of RNA variant scans (doi:10.7554/elife.90254)", "parents": {"B1": {"name": "LINE1-mini (parent)", "chain": "GGCAGAGCUCAACACAGCGUGGCAAAGUGGCUGUGGCUAGACUGCC"}}, "note": "The source gives no read counts; variants with many changes may rest on few reads."}
{"variants_of": "B1", "assay": "self-cleavage, relative activity (ratio to wild type); higher = more cleavage; in vitro, sequencing; the parent is a self-cleaving ribozyme"}
{"variant": "C3U C15G A41G", "self-cleavage": 0.03}
{"variant": "G1C C15A U38A", "self-cleavage": 0.02}
{"variant": "U9G C13A G22U G33U G40U", "self-cleavage": 0.02}
{"variant": "G5A C13A U32G G35A", "self-cleavage": 0.09}
{"variant": "G5U G30C G40A C46A", "self-cleavage": 0.02}
{"variant": "C31A U32G U38A", "self-cleavage": 0.02}
{"variant": "G1U G7A G44U", "self-cleavage": 0.15}
{"variant": "A6C C10A G36U C37A", "self-cleavage": 0.01}
{"variant": "C10U C23G A39C", "self-cleavage": 0.04}
{"variant": "C15U G19C U28A C31A", "self-cleavage": 0.6}
{"variant": "C10G G21C G27C G35U", "self-cleavage": 0.01}
{"variant": "G1U G27U G44U", "self-cleavage": 0}
{"variant": "G5C U9A G19U C46G", "self-cleavage": 0.52}
{"variant": "C13G A25U C42A", "self-cleavage": 0.05}
{"variant": "G2C A11U C23G", "self-cleavage": 0.03}
{"variant": "U20C G21C G22A A25C", "self-cleavage": 0.23}
{"variant": "C8A A12C G21U C42G", "self-cleavage": 0.15}
{"variant": "A6G G33A A41U G44U", "self-cleavage": 0.26}
{"variant": "C8G U9G C18U C42A", "self-cleavage": 0.04}
{"variant": "G27U G29U C31A G35U", "self-cleavage": 0.02}
{"variant": "C13U C31G G36U", "self-cleavage": 0.28}
{"variant": "G1C U9A G19C G35U", "self-cleavage": 0.01}
{"variant": "U9C C13A U20G U28C G30A U34C C45A", "self-cleavage": 0}
{"variant": "C13A C15U G27C C31U G33U A41C C45U", "self-cleavage": 0.03}
{"variant": "A4U U9C U34C G44A", "self-cleavage": 0.03}
{"variant": "C8A C15U A16C G30A U34C A39U C42U", "self-cleavage": 0.09}
{"variant": "C23A G33U G35A A41G", "self-cleavage": 0.06}
{"variant": "A25G U32C U34A", "self-cleavage": 0.05}
{"variant": "A12G G19U C37A", "self-cleavage": 0.03}
{"variant": "G1A A25C U32C U38C G40A G44A", "self-cleavage": 0}
{"variant": "G2U A12U C15G", "self-cleavage": 0.03}
{"variant": "C3A G27U U32C C45G", "self-cleavage": 0.1}
{"variant": "G2U G36C G40U", "self-cleavage": 0.19}
{"variant": "C13U C18U G30C G44C", "self-cleavage": 0.05}
{"variant": "C15U G33A G44U", "self-cleavage": 0.13}
{"variant": "C3G A25C U32A", "self-cleavage": 0.1}
{"variant": "U32A U43C C46U", "self-cleavage": 0}
{"variant": "U9A U28C G36U C46U", "self-cleavage": 0.09}
{"variant": "C3A G7C A16C C18G", "self-cleavage": 0.04}
{"variant": "C15G U34A G36U", "self-cleavage": 0.03}
{"variant": "C8A A24C C46A", "self-cleavage": 0.34}
{"variant": "G2A C10A C13G C46A", "self-cleavage": 0.02}
{"variant": "G7C A11G A12U U28A U34A", "self-cleavage": 0.01}
{"variant": "A6U A12U A25G U32A G40U", "self-cleavage": 0.02}
{"variant": "G2A G22A A24G G40U", "self-cleavage": 0.21}
{"variant": "A4U G17C C18U G35U A39G", "self-cleavage": 0.04}
{"variant": "A14U C15U G30C G36A U43C", "self-cleavage": 0.02}
{"variant": "G17U A25G U34A", "self-cleavage": 0.03}
{"variant": "G7C G30C C31U G33C", "self-cleavage": 0.11}
{"variant": "G7C U28G C45G", "self-cleavage": 0.02}
{"variant": "G5U C10G G21U U38A G44U", "self-cleavage": 0}
{"variant": "G27U G35A C45A", "self-cleavage": 0.33}
{"variant": "A16C C18U G22C C23A C31U", "self-cleavage": 0.02}
{"variant": "A25C U34C C46A", "self-cleavage": 0.09}
{"variant": "G2C C18G G21C G27U G33U U38G", "self-cleavage": 0.12}
{"variant": "C10G G17A G33C", "self-cleavage": 0.04}
{"variant": "A12C C13U C46A", "self-cleavage": 0}
{"variant": "A14C C15A U20A U28C G29C", "self-cleavage": 0.01}
{"variant": "C3U A14U C15A G19A", "self-cleavage": 0.11}
{"variant": "A12U U20C C31G", "self-cleavage": 0.01}
{"variant": "C8G U9G C10A A12C A41U", "self-cleavage": 0.01}
{"variant": "G2U G17U C42A", "self-cleavage": 0.01}
{"variant": "G2C U38G A39U", "self-cleavage": 0.1}
{"variant": "G7U G35A G36U C37U", "self-cleavage": 0.04}
{"variant": "G7A C31U G40A C46U", "self-cleavage": 0.04}
{"variant": "G2A A16U G19C A24C C31G A41G", "self-cleavage": 0.03}
{"variant": "G2C C8A C18A G22C C45U", "self-cleavage": 0.06}
{"variant": "G22C C23U A39U", "self-cleavage": 0.46}
{"variant": "C15A G27U U32C C42A", "self-cleavage": 0.05}
{"variant": "G1A G5A A11C A12C A16C U32G C37U C46U", "self-cleavage": 0.01}
{"variant": "A4C C18U G21A G35U", "self-cleavage": 0.08}
{"variant": "G19U A24C U32G", "self-cleavage": 0.01}
{"variant": "C8U A16C G36A", "self-cleavage": 0.25}
{"variant": "C3A G19A U34C", "self-cleavage": 0.27}
{"variant": "A11U A12U U28G G30C", "self-cleavage": 0.03}
{"variant": "G22C G30A C37U", "self-cleavage": 0.07}
{"variant": "G7A G36C C45U", "self-cleavage": 0.46}
{"variant": "A12G C15G A16U C18U", "self-cleavage": 0.03}
{"variant": "G5U C8G U28G A41U", "self-cleavage": 0.11}
{"variant": "C13A A26G G35A", "self-cleavage": 0.16}
{"variant": "G5A C10A C13A G33C", "self-cleavage": 0.01}
{"variant": "A25C C31A U32A G36A G40A", "self-cleavage": 0.03}
{"variant": "C3U U20A C46G", "self-cleavage": 0.17}
{"variant": "A4C C18G C23U U28C C31G G44A", "self-cleavage": 0.71}
